Results published in PubChem BioAssay AID902 (National Center for Advancing Translational Sciences (NCATS), 2007).
Screen size: about 130,000 compounds; about 1,900 (1.5%) were called active. The shares of active, inactive and inconclusive entries below differ from those in the screen. Calls come from the whole dose curve; as a rule, active = well fitted cell-killing curve with a large enough effect; inconclusive = small, poorly fitted or top-dose-only effect; inactive = no such curve, though single readings can be large or run the other way. A potency beside an inconclusive call is a rough fit, not a confirmed value.

Experiment: qHTS Screen for Compounds that Selectively Target Cancer Cells with p53 Mutations: Cytotoxicity of p53ts Cells at the Nonpermissive Temperature; note: nearly all actives have a fitted effect of over 55% in size
Conditions: H1299-p53A138V viability at 39C, ATP luminescence, 24 h; activity change, negative = cell killing: at 46.1 µM (top of the series)
% is set by controls: 0 for no effect and ±100 for the full control effect; potency is the fitted concentration of half-maximal effect; tags give direction and shape of the fitted curve.

| Structure (SMILES) | Potency | activity change, negative = cell killing |
| --- | --- | --- |
| Clc1ccc(Nc2ncnc3c2cnn3-c2ccccc2)cc1 | inconclusive: 31.6 µM [cytotoxic, single point] |  |
| Oc1cc(Cc2ccccc2)cnc1CN1CCCCC1 |  | inactive: -3.37% |
| COc1ccccc1CCn1c(=O)c(-c2cccc(F)c2)nc2cncnc21 |  | inactive: -3.66% |
| CN1C(=O)/C(=C/c2ccc(-c3ccccc3[N+](=O)[O-])o2)SC1=Nc1ccc(Cl)c(C(=O)O)c1 |  | inactive: 16.6% |
| Cc1ccc(-n2nc3c(N4CCC(C(=O)NCCc5ccccc5C)CC4)nnc(C)c3c2C)cc1 | active: 20 µM |  |
| O=C(Nc1nc2c(s1)CCCC2)c1cccs1 | active: 10 µM |  |
| CC(=O)Oc1cc2c(C(=O)NCCCN3CCOCC3)c(C)oc2c2ccccc12 | inconclusive: 31.6 µM [cytotoxic, single point] |  |
| COc1ccc(OC)c(Nc2ncc3c(n2)CCN(Cc2cc(OC)c(OC)c(OC)c2)C3)c1 |  | inactive: -21.1% |
| CCOC(=O)c1ccccc1NC(=O)CSc1cc(C)[nH]c(=O)n1 | inconclusive: 3.98 µM [cytotoxic, single point] |  |
| CCc1ccc(NC(=O)Cn2c(=O)n(-c3ccccc3)c(=O)c3ccc(C(=O)NCc4ccc5c(c4)OCO5)cc32)cc1 | active: 15.8 µM |  |
| Cc1ccc(C)c(Cn2c(=O)n(Cc3ccco3)c(=O)c3oc4ccccc4c32)c1 |  | inactive: 18% |
| O=C(O)c1ccc(COc2ccccc2Cl)cc1 |  | inactive: -6.02% |
| CC(=O)c1ccc(NC(=O)CSc2nnc(NC(=O)Nc3ccccc3)s2)cc1 | inconclusive: 2 µM [cytotoxic, partial curve] |  |
| COc1ccc(C(=O)COC(=O)C(CC(C)C)N2C(=O)c3ccccc3C2=O)cc1 (stereo not given) | inconclusive: 11.2 µM [cytotoxic, partial curve] |  |
| CN(C)c1cc2c(cc1NC(=O)c1ccc(F)cc1)n(C)c(=O)n2C |  | inactive: -16.7% |
| COc1ccc(OCC2c3cc(OC)c(OC)cc3CCN2C(=O)COc2ccc(Cl)cc2Cl)cc1 (stereo not given) | inconclusive: 1 µM [cytotoxic, full curve, poor fit] |  |
| CC(C)c1ccc(OCc2nc(-c3ccccn3)no2)c(Br)c1 | inconclusive: 0.794 µM [cytotoxic, partial curve] |  |
| NC(=O)c1ccsc1NC(=O)COC(=O)c1ccccc1NCc1ccco1 | inconclusive: 20 µM [cytotoxic, partial curve] |  |
| CNCCCCOc1ccccc1Cc1ccccc1 | inconclusive: 15.8 µM [cytotoxic, partial curve] |  |
| CCCn1c(=O)c2sccc2n2c(CCCC(=O)Nc3ccc(Oc4ccccc4)cc3)nnc12 |  | inactive: -5.43% |
| COc1ccc(CNC(=O)c2ccc3c(c2)N(Cc2ccccc2C)C(=O)c2ccccc2S3=O)cc1 (stereo not given) | inconclusive: 0.631 µM [cytotoxic, full curve] |  |
| Cc1ccc2[nH]c(-c3ccccc3)cc(=O)c2c1 | active: 5.01 µM |  |
| CC(=O)C=NCC(=O)O |  | inactive: 2.62% [at 9.22 µM] |

| Structure (SMILES) | Potency | activity change, negative = cell killing |
| --- | --- | --- |
| CCc1ccc(Nc2sc(C(=O)c3ccccc3)c(N)c2S(C)(=O)=O)cc1 | inconclusive: 31.6 µM [cytotoxic, single point] |  |
| Cc1ccc(CSc2nc(-c3ccc(C(C)(C)C)cc3)nc3cc(=O)[nH]n23)cc1 | inconclusive: 31.6 µM [cytotoxic, single point] |  |
| N#CC1=C(N)N2C(=C(C#N)C13CCCCC3)SC1CCCCC12O (stereo not given) | inconclusive: 15.8 µM [cytotoxic, single point] |  |
| O=C(Nc1ccc2nc3ccccc3nc2c1)c1ccccc1 | active: 10 µM |  |
| CC1=CC(=O)c2ccccc2C1=O | inconclusive: 12.6 µM [cytotoxic, single point] |  |
| CCn1c(C)nc2cc(-c3nc4n(n3)Cc3ccccc3-4)ccc21 | active: 0.398 µM |  |
| Cc1nc2cc(NC(=O)N3c4ccccc4CC3C)ccc2o1 (stereo not given) | active: 10 µM |  |
| COC(=O)c1c(-c2cccs2)csc1NC(=O)c1cc(OC)c(OC)c(OC)c1 |  | inactive: -27.1% |
| COc1ccc(-c2cn3c(n2)sc2cc(C(=O)Nc4ccc(F)cc4Cl)ccc23)cc1 | active: 20 µM |  |
| CCc1ccc(-n2nc(C)c3c(C(=O)N4CCN(c5cccc(Cl)c5)CC4)cc(C)nc32)cc1 | inconclusive: 3.98 µM [cytotoxic, full curve, poor fit] |  |
| CCOc1cc(C(=O)OCc2cc(=O)n3nc(C4CC4)sc3n2)cc(OCC)c1OCC | inconclusive: 10 µM [cytotoxic, partial curve, poor fit] |  |
| COC(=O)[C@@]1(Cc2ccc(F)cc2)[C@H]2c3cc(C(=O)N(C)C)n(Cc4cc(F)c(F)c(F)c4)c3C[C@H]2CN1C(=O)c1ccccc1 |  | inactive: 3.99% |
| COc1cc(Br)ccc1C1C(C(=O)Nc2ccc(C)cc2C)=C(C)Nc2nnnn21 (stereo not given) | inconclusive: 5.01 µM [cytotoxic, full curve, poor fit] |  |
| CCCCCn1c(-c2cccc(C)c2)nc2ccccc21 | inconclusive: 31.6 µM [cytotoxic, single point] |  |
| COC(=O)c1ccc(CSc2nc3c([nH]c4ccccc43)c(=O)n2-c2cc(C)cc(C)c2)o1 | active: 15.8 µM |  |
| CN(C(=O)Cn1ncc2c1-c1ccccc1OC2)c1ccc(Br)cc1 | inconclusive: 0.0398 µM [cytotoxic, partial curve] |  |
| CCS(=O)(=O)c1cccc(C(=O)N2CCN(c3nc4c(C)ccc(Cl)c4s3)CC2)c1 | inconclusive: 11.2 µM [cytotoxic, partial curve] |  |
| CN(C)c1ccc(-c2ccc3ncnc(N(C)Cc4ccco4)c3c2)cc1 |  | inactive: -8.53% |
| COc1ccccc1NC(=O)c1oc2ccccc2c1NC(=O)COc1ccccc1OC | inconclusive: 25.1 µM [cytotoxic, single point] |  |
| COc1ccc(C)cc1NC(=O)CSc1ccc(-c2ccccn2)nn1 | inconclusive: 1.26 µM [cytotoxic, full curve, poor fit] |  |
| C=CCNc1nc(N)c(C(=O)Nc2cc(C)on2)s1 | inconclusive: 12.6 µM [cytotoxic, single point] |  |
| Cc1cc(C)cc(NC(=O)C2CCC(CNS(=O)(=O)c3ccc4c(c3)C(C)(C)C(=O)N4C)CC2)c1 (stereo not given) | inconclusive: 31.6 µM [cytotoxic, single point] |  |
